This data set in a line: xn = mol fraction of the nth substance listed. To be noted: 298.15 K, 101 kPa.

Some of these densities may be calculated back from excess volumes.

What is called mass density is mass per unit of volume. On to `CCCC[n+]1ccn(C)c1.[Cl-]` + CC#N, for which the mass density is on record as 1021.2 kg/m3 (x2 = 0.502); 1011.6 kg/m3 (x2 = 0.5483); 998.1 kg/m3 (x2 = 0.6038); 968.2 kg/m3 (x2 = 0.7021); 869.7 kg/m3 (x2 = 0.9002); 829.1 kg/m3 (x2 = 0.9499). This compound displayed a mass density (x2 = 0.975) of 804.9 kg/m3.

Turning to `CC#N` + CCCC[n+]1ccn(C)c1.[Cl-], under “x1 = 1”, the mass density came to 776.7 kg/m3.

`CCO` + CCCC[n+]1ccn(C)c1.[Cl-]: for the setting “x1 = 1”, the mass density stood at 786.7 kg/m3.

On to `CO` + CCCC[n+]1ccn(C)c1.[Cl-], for which, under “x1 = 1”, the mass density turned out to be 785.1 kg/m3.

In the case of `CCCC[n+]1ccn(C)c1.[Cl-]` + CCO, the mass density (x2 = 0.4991) is reported as 1009.4 kg/m3; the mass density (x2 = 0.5533) worked out at 996.6 kg/m3; the mass density (x2 = 0.6011) turned out to be 983.5 kg/m3; the mass density (x2 = 0.9) was found to be 861.5 kg/m3; the mass density (x2 = 0.9501) came to 827.5 kg/m3; the mass density (x2 = 0.975) came out at 808.2 kg/m3.

On to `CCCC[n+]1ccn(C)c1.[Cl-]` + CN(C)C=O, for which the mass density reads like this: (x2 = 0.501) 1045.6 kg/m3; (x2 = 0.6134) 1032.4 kg/m3; (x2 = 0.6994) 1020.4 kg/m3; (x2 = 0.8017) 1001.6 kg/m3; (x2 = 0.9) 978 kg/m3; (x2 = 0.9502) 963.1 kg/m3.

For `CCCC[n+]1ccn(C)c1.[Cl-]` + CO, the mass density is given as 1026.7 kg/m3 (x2 = 0.5213); 1021.6 kg/m3 (x2 = 0.5458); 1012.5 kg/m3 (x2 = 0.5925); 947.8 kg/m3 (x2 = 0.7996); 889.3 kg/m3 (x2 = 0.9007); 846.9 kg/m3 (x2 = 0.95). Under “x2 = 0.975”, this compound displayed a mass density of 819.2 kg/m3.

Consider `CCCC[n+]1ccn(C)c1.[Cl-]` + O, for which the mass density by setting is: (x2 = 0.4982) 1082.8 kg/m3; (x2 = 0.5535) 1082 kg/m3; (x2 = 0.8999) 1049.3 kg/m3; (x2 = 0.9502) 1028.9 kg/m3; (x2 = 0.975) 1014.6 kg/m3.

Values taken from a compilation of properties of binary mixtures (doi:10.1016/j.jiec.2013.02.010).
